Each molecule was assayed on MLKL phosphorylation, HT29-L23 human colorectal adenocarcinoma cells (assay: cells). Settings: read-out: pMLKL HCS Cell Assay (IC50, uM).

Row | Structure (SMILES) | IC50
1 | COc1ncc(-c2cc(C(F)(F)F)c3c(N)ncnn23)cc1C(=O)NC1CN(Cc2ccncc2)CC1F (racemic) [Example 231, 5-[4-amino-5-(trifluoromethyl)pyrrolo[2,1-f][1,2,4]triazin-7-yl]-N-{4-fluoro-1-[(pyridin-4-yl)methyl]pyrrolidin-3-yl}-2-methoxypyridine-3-carboxamide] | 0.0073 µM
2 | COc1ncc(-c2cc(C(F)(F)F)c3c(N)ncnn23)cc1C(=O)NC1CCC(O)(c2ccccc2)C1 (stereo not shown) [Example 1690, 5-(4-amino-5-(trifluoromethyl)pyrrolo[2,1-f][1,2,4]triazin-7-yl)-N-(3-hydroxy-3-phenylcyclopentyl)-2-methoxynicotinamide] | 0.07 µM
3 | COc1ncc(-c2cc(C(F)(F)F)c3c(N)ncnn23)cc1C(=O)NC1CN(CC2CCCC2)CC1F (racemic) [Example 194, 5-[4-amino-5-(trifluoromethyl)pyrrolo[2,1-f][1,2,4]triazin-7-yl]-N-[1-(cyclopentylmethyl)-4-fluoropyrrolidin-3-yl]-2-methoxypyridine-3-carboxamide] | 0.085 µM
4 | Nc1ncnn2c(-c3cccc(C(=O)Nc4cnn(Cc5ccccc5)c4)c3)ccc12 [Example 60, 3-(4-aminopyrrolo[2,1-f][1,2,4]triazin-7-yl)-N-(1-benzyl-1H-pyrazol-4-yl)benzamide] | 0.041 µM
5 | COc1ncc(-c2c(C#N)cc3c(N)ncnn23)cc1C(=O)N[C@@H]1CN(C(=O)C2CC(F)(F)C2)C[C@@H]1F [Example 552, 5-(4-amino-6-cyanopyrrolo[2,1-f][1,2,4]triazin-7-yl)-N-((3R,4S)-1-(3,3-difluorocyclobutane-1-carbonyl)-4-fluoropyrrolidin-3-yl)-2-methoxynicotinamide] | 0.369 µM
6 | [2H]C([2H])([2H])Oc1ncc(-c2cc(CN3CC(F)(F)C3)c3c(N)ncnn23)cc1C(=O)N[C@@H]1CN(C(=O)C(C)(C)C(F)(F)F)C[C@@H]1F [Example 1276, 5-{4-amino-5-[(3,3-difluoroazetidin-1-yl)methyl]pyrrolo[2,1-f][1,2,4]triazin-7-yl}-N-[(3R,4S)-4-fluoro-1-(3,3,3-trifluoro-2,2-dimethylpropanoyl)pyrrolidin-3-yl]-2-(methoxy-d3)nicotinamide] | 0.00064 µM
7 | Cc1ccc(-c2cc(CN3CCC(C(F)(F)F)CC3)c3c(N)ncnn23)cc1C(=O)N[C@@H]1CN(C(=O)OCC(F)(F)F)C[C@@H]1F [Example 1574, 2,2,2-trifluoroethyl (3R,4S)-3-[5-(4-amino-5-{[4-(trifluoromethyl)piperidin-1-yl]methyl}pyrrolo[2,1-f][1,2,4]triazin-7-yl)-2-methylbenzamido]-4-fluoropyrrolidine-1-carboxylate] | 0.00061 µM
8 | Cc1cc(-c2cc(C(F)(F)F)c3c(N)ncnn23)cc(C(=O)N[C@@H]2CN(C(=O)C3(F)CC3)C[C@@H]2F)c1Cl [Example 715, 5-[4-amino-5-(trifluoromethyl)pyrrolo[2,1-f][1,2,4]triazin-7-yl]-2-chloro-N-[(3R,4S)-4-fluoro-1-(1-fluorocyclopropanecarbonyl)pyrrolidin-3-yl]-3-methylbenzamide] | 0.124 µM
9 | Cc1c(F)cc(-c2cc(C(F)(F)F)c3c(N)ncnn23)cc1C(=O)N[C@@H]1CN(C(=O)C(C)C(F)(F)F)C[C@@H]1F (stereo partly drawn) [Example 1319, 5-[4-amino-5-(trifluoromethyl)pyrrolo-[2,1-f][1,2,4]triazin-7-yl]-3-fluoro-N-[(3R,4S)-4-fluoro-1-(3,3,3-trifluoro-2-methylpropanoyl)pyrrolidin-3-yl]-2-methylbenzamide] | 0.0084 µM
10 | Cc1ccc(-c2cc(C(F)(F)F)c3c(N)ncnn23)cc1C(=O)N[C@@H]1CN(C(=O)c2ccc(F)cc2Cl)C[C@@H]1F [Example 1043, 5-[4-amino-5-(trifluoromethyl)pyrrolo[2,1-f][1,2,4]triazin-7-yl]-N-[(3R,4S)-1-(2-chloro-4-fluorobenzoyl)-4-fluoropyrrolidin-3-yl]-2-methylbenzamide] | 0.0023 µM

— patent US11618753B2 (priority 2018, dated 2023)
